In patent US20180169257A1 (Seagen, published 2018):

Molecular target: T1, human NTB-A (human, UniProt Q96DU3 22-332)
T1 sequence: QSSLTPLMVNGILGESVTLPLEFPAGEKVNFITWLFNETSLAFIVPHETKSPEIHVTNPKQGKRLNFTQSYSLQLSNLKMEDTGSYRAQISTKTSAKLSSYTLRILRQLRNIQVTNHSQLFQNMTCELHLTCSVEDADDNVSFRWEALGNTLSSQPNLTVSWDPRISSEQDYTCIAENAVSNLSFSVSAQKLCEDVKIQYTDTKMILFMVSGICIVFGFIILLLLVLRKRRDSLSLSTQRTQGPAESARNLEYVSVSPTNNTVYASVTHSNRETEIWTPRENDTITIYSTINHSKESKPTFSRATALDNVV
Assay: cell-based or functional assay

B1: h20F3ec-1910(2) PBD dimer ADC (other)
heavy: QIQLVQSGSELKKPGASVKVSCKASGYTFTNYGMNWVRQAPGQDLKWMGWINTYSGEPRYADDFKGRFVFSLDKSVNTAYLQISSLKAEDTAVYYCARDYGRWYFDVWGQGTTVTVSS[sequence of human IgG1 constant region with changes omitted]
light: QIVLSQSPATLSLSPGERATMSCRASSSVSHMHWYQQKPGQAPRPWIYATSNLASGVPARFSGSGSGTDYTLTISSLEPEDFAVYYCQQWSSTPRTFGGGTKVEIKRTVAAPSVFIFPPSDEQLKSGTASVVCLLNNFYPREAKVQWKVDNALQSGNSQESVTEQDSKDSTYSLSSTLTLSKADYEKHKVYACEVTHQGLSSPVTKSFNRGEC
modifications: drug-linker SGD-1910 (PBD dimer) on the thiol of the cysteine introduced at position 239 (EU index) of the IgG1 chain; average drug load about 2 per antibody
Maximum % Phagocytosis (ADCP), Raji cell line: 45%
Maximum % Phagocytosis (ADCP), WIL2-S cell line: 45%
Maximum % Phagocytosis (ADCP), normal human T cells: 37%
